Source: the supplement of paper PMC8728848
This is one part of the list.

Columns and labels:
Test in all cases: glycan array binding signal (z-score within array); higher = stronger binding
Conditions in all cases: glycan notation: IUPAC condensed, linker removed
[1] = molecular target: GlcNAc(b1-3)Gal(b1-4)Glc
In short: (§1)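 The binding signal is a Z-score computed within each array and averaged over linkers. Arrays of the same protein sequence at different concentrations or buffers were also averaged together. Data originate from 3228 arrays in the Consortium for Functional Glycomics database, kept only where the protein sequence was available.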

[2] = molecular target: GlcNAc(b1-3)Gal(b1-4)GlcNAc
In short: as §1

[3] = molecular target: GlcNAc(b1-3)Gal(b1-4)GlcNAc(b1-3)Gal(b1-4)GlcNAc
In short: as §1

[4] = molecular target: GlcNAc(b1-3)GalNAc
In short: as §1

[5] = molecular target: GlcNAc(b1-3)Man
In short: as §1

[6] = molecular target: GlcNAc(b1-3)[GlcNAc(b1-4)][GlcNAc(b1-6)]GlcNAc
In short: as §1

[7] = molecular target: GlcNAc(b1-3)[GlcNAc(b1-6)]Gal(b1-4)GlcNAc
In short: as §1

[8] = molecular target: GlcNAc(b1-3)[GlcNAc(b1-6)]GalNAc
In short: as §1

[9] = molecular target: GlcNAc(b1-4)Gal(b1-4)GlcNAc
In short: as §1

[10] = molecular target: GlcNAc(b1-4)GlcNAc
In short: as §1

[11] = molecular target: GlcNAc(b1-4)GlcNAc(b1-4)GlcNAc
In short: as §1

[12] = molecular target: GlcNAc(b1-4)GlcNAc(b1-4)GlcNAc(b1-4)GlcNAc(b1-4)GlcNAc
In short: as §1

[13] = molecular target: GlcNAc(b1-4)GlcNAc(b1-4)GlcNAc(b1-4)GlcNAc(b1-4)GlcNAc(b1-4)GlcNAc
In short: as §1

[14] = molecular target: GlcNAc(b1-4)[GlcNAc(b1-6)]GalNAc
In short: as §1

[15] = molecular target: GlcNAc(b1-6)Gal(b1-4)GlcNAc
In short: as §1

[16] = molecular target: GlcNAc(b1-6)GalNAc
In short: as §1

[17] = molecular target: GlcNAc3Prop(b1-4)GlcNAc
In short: as §1

[18] = molecular target: GlcNAc6S(b1-3)Gal(b1-4)GlcNAc
In short: as §1

[19] = molecular target: Kdn(a2-3)Gal(b1-3)GalNAc
In short: as §1

[20] = molecular target: Kdn(a2-3)Gal(b1-3)GlcNAc
In short: as §1

[21] = molecular target: Kdn(a2-3)Gal(b1-4)Glc
In short: as §1

[22] = molecular target: Kdn(a2-3)Gal(b1-4)GlcNAc
In short: as §1

[23] = molecular target: Kdn(a2-3)Gal(b1-4)[Fuc(a1-3)]GlcNAc
In short: as §1

[24] = molecular target: Kdn(a2-6)Gal(b1-4)GlcNAc
In short: as §1

[25] = molecular target: Man(a1-2)Man(a1-2)Man(a1-3)Man
In short: as §1

[26] = molecular target: Man(a1-2)Man(a1-2)Man(a1-6)[Man(a1-3)]Man
In short: as §1

[27] = molecular target: Man(a1-2)Man(a1-3)Man
In short: as §1

[28] = molecular target: Man(a1-2)Man(a1-3)[Man(a1-2)Man(a1-6)]Man
In short: as §1

[29] = molecular target: Man(a1-2)Man(a1-3)[Man(a1-2)Man(a1-6)]Man(a1-6)[Man(a1-2)Man(a1-2)Man(a1-3)]Man
In short: as §1

[30] = molecular target: Man(a1-2)Man(a1-3)[Man(a1-2)Man(a1-6)]Man(a1-6)[Man(a1-2)Man(a1-2)Man(a1-3)]Man(b1-4)GlcNAc(b1-4)GlcNAc
In short: as §1

[31] = molecular target: Man(a1-2)Man(a1-3)[Man(a1-6)]Man(a1-6)[Man(a1-2)Man(a1-3)]Man(b1-4)GlcNAc(b1-4)GlcNAc
In short: as §1

[32] = molecular target: Man(a1-2)Man(a1-6)[Man(a1-3)]Man(a1-6)[Man(a1-2)Man(a1-2)Man(a1-3)]Man
In short: as §1

[33] = molecular target: Man(a1-2)Man(a1-6)[Man(a1-3)]Man(a1-6)[Man(a1-2)Man(a1-2)Man(a1-3)]Man(b1-4)GlcNAc(b1-4)GlcNAc
In short: as §1

[34] = molecular target: Man(a1-3)[Man(a1-6)]Man
In short: as §1

[35] = molecular target: Man(a1-3)[Man(a1-6)]Man(a1-6)[Man(a1-2)Man(a1-3)]Man(b1-4)GlcNAc(b1-4)GlcNAc
In short: as §1

[36] = molecular target: Man(a1-3)[Man(a1-6)]Man(a1-6)[Man(a1-3)]Man
In short: as §1

[37] = molecular target: Man(a1-3)[Man(a1-6)]Man(a1-6)[Man(a1-3)]Man(b1-4)GlcNAc(b1-4)GlcNAc
In short: as §1

[38] = molecular target: Man(a1-3)[Man(a1-6)]Man(b1-4)GlcNAc(b1-4)GlcNAc
In short: as §1

[39] = molecular target: Man(a1-6)Man
In short: as §1

[40] = molecular target: Man(b1-4)GlcNAc
In short: as §1

[41] = molecular target: Neu5Ac(a2-3)Gal
In short: as §1

[42] = molecular target: Neu5Ac(a2-3)Gal(b1-3)GalNAc
In short: as §1

[43] = molecular target: Neu5Ac(a2-3)Gal(b1-3)GalNAc(b1-3)Gal(a1-4)Gal(b1-4)Glc
In short: as §1

[44] = molecular target: Neu5Ac(a2-3)Gal(b1-3)GalNAc(b1-4)[Neu5Ac(a2-3)]Gal(b1-4)Glc
In short: as §1

[45] = molecular target: Neu5Ac(a2-3)Gal(b1-3)GalNAc(b1-4)[Neu5Ac(a2-8)Neu5Ac(a2-3)]Gal(b1-4)Glc
In short: as §1

B1: CVN (Nostoc ellipsosporum), P81180 (protein)
chain: LGKFSQTCYNSAIQGSVLTSTCERTNGGYNTSSIDLNSVIENVDGSLKWQPSNFIETCRNTQLAGSSELAAECKTRAQQFVSTKINLDDHIANIDGTLKYE
- glycan array binding signal (z-score) [1]: -0.302
- glycan array binding signal (z-score) [2]: -0.234
- glycan array binding signal (z-score) [3]: -0.296
- glycan array binding signal (z-score) [4]: -0.306
- glycan array binding signal (z-score) [5]: -0.301
- glycan array binding signal (z-score) [6]: -0.305
- glycan array binding signal (z-score) [7]: -0.302
- glycan array binding signal (z-score) [8]: -0.302
- glycan array binding signal (z-score) [9]: -0.296
- glycan array binding signal (z-score) [10]: -0.301
- glycan array binding signal (z-score) [11]: -0.305
- glycan array binding signal (z-score) [12]: -0.305
- glycan array binding signal (z-score) [13]: -0.306
- glycan array binding signal (z-score) [14]: -0.295
- glycan array binding signal (z-score) [15]: -0.302
- glycan array binding signal (z-score) [16]: -0.302
- glycan array binding signal (z-score) [17]: -0.3
- glycan array binding signal (z-score) [18]: -0.222
- glycan array binding signal (z-score) [19]: -0.196
- glycan array binding signal (z-score) [20]: -0.306
- glycan array binding signal (z-score) [21]: -0.296
- glycan array binding signal (z-score) [22]: -0.298
- glycan array binding signal (z-score) [23]: -0.271
- glycan array binding signal (z-score) [24]: -0.305
- glycan array binding signal (z-score) [25]: 5.16
- glycan array binding signal (z-score) [26]: 5.83
- glycan array binding signal (z-score) [27]: 3.06
- glycan array binding signal (z-score) [28]: 3.6
- glycan array binding signal (z-score) [29]: 7.15
- glycan array binding signal (z-score) [30]: 5.21
- glycan array binding signal (z-score) [31]: 5.58
- glycan array binding signal (z-score) [32]: 7.23
- glycan array binding signal (z-score) [33]: 6.39
- glycan array binding signal (z-score) [34]: -0.299
- glycan array binding signal (z-score) [35]: 4.22
- glycan array binding signal (z-score) [36]: -0.303
- glycan array binding signal (z-score) [37]: 4.48
- glycan array binding signal (z-score) [38]: -0.296
- glycan array binding signal (z-score) [39]: -0.304
- glycan array binding signal (z-score) [40]: -0.304
- glycan array binding signal (z-score) [41]: -0.306
- glycan array binding signal (z-score) [42]: -0.18
- glycan array binding signal (z-score) [43]: -0.272
- glycan array binding signal (z-score) [44]: -0.263
- glycan array binding signal (z-score) [45]: -0.066
